# The whole screen tested about 310,000 compounds, of which about 2,200 (0.71%) showed an effect of 50% or more. The effect is printed as a negative number. The list shows a part of the results.
# Biological target: human ether-à-go-go-related gene (hERG) potassium channel (human, UniProt Q12809)
# Test: primary screen, population patch clamp on CHO cells stably expressing hERG
# Sequence of human ether-à-go-go-related gene (hERG) potassium channel (Q12809 whole entry, looked up): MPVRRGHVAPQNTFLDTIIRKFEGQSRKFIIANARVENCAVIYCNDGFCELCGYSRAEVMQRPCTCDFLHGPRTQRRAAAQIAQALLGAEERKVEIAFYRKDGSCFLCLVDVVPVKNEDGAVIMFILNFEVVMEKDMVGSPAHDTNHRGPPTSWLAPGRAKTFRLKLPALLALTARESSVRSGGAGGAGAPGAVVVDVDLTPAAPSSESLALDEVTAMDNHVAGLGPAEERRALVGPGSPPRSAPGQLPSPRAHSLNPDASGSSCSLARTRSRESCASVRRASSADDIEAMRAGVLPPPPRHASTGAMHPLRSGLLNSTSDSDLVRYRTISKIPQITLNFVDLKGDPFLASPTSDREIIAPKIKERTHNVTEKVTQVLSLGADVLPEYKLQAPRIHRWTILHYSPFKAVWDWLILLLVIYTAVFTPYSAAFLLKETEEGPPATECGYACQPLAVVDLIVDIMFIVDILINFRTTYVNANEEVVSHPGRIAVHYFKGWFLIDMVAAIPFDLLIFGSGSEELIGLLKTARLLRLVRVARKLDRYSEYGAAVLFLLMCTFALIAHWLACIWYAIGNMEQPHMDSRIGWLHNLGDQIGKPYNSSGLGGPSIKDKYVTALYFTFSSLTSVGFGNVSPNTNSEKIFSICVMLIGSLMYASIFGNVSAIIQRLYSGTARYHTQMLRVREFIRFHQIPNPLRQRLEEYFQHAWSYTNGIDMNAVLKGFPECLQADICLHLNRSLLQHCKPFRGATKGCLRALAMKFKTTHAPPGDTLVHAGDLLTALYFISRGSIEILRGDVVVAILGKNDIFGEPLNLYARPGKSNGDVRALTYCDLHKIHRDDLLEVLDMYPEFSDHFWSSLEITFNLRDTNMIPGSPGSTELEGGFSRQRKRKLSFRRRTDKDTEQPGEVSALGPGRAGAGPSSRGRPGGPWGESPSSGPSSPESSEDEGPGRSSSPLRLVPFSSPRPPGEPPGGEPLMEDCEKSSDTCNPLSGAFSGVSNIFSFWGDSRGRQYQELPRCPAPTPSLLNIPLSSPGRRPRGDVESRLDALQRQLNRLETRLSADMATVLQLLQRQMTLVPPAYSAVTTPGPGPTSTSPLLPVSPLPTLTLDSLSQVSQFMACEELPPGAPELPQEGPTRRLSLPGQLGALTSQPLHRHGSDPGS
row,SMILES,"hERG current change (%, negative = inhibition) at 1uM [%]"
1,CCOc1ccc(NC(=O)CCC(=O)OC)cc1,1.46
2,COc1ccc(C(=O)Nc2cnc(NC(=O)c3cccs3)cc2C)cc1,7.72
3,O=C(O)c1cccc2sc3cc(Cl)ccc3c(=O)c12,8.42
4,O=S(=O)(Nc1ccc(Cc2ccncc2)cc1)c1ccc(Cl)cc1,12
5,CC1=C(C#N)C(NC(=O)C2CC2)(C(F)(F)F)C(=O)N1 (stereo not shown),5.98
6,CC(C)c1ccc(N(C(=O)c2csnn2)C(C(=O)NC(C)(C)C)c2ccncc2)cc1 (stereo not shown),-2.31
7,Cc1csc(SCC(=O)Nc2nc(-c3ccccc3)cs2)n1,-1.95
8,O=C(COC(=O)c1cccc(S(=O)(=O)N2CCCC2)c1)Nc1ccccc1,14.2
9,O=C(Nc1ccccc1)N(CCCN1CCOCC1)Cc1cc2cc3c(cc2[nH]c1=O)OCCO3,9.12
10,Cc1nn(C)c(C(=O)Nc2cccc(CN3CCOCC3)c2)c1Br,3.96
11,Cc1cc(NC(=O)c2cc(-c3ccc(Br)cc3)on2)no1,15.5
12,COc1ccc(C(=O)N2CCN(c3nc(C4CC4)nc4sc(C)c(C)c34)CC2)cc1.Cl,12
13,OCCN(CCO)c1ncnc2c1oc1ccc(Br)cc12,-6.35
14,COc1ccc(NC(=O)COC(=O)CNC(=O)C2CCCCC2)cc1,10.5
15,O=C1/C(=C\c2cccnc2)SC(=S)N1c1ccc(F)cc1,7.73
16,Cc1ccc(C)c(N2CCN(C(=O)CCCCCn3c(=S)[nH]c4ccc(N5CCOCC5)cc4c3=O)CC2)c1,10.5
17,OC(c1ccccc1)c1nccc2ccccc12 (stereo not shown),4.12
18,COCCn1nnnc1C(C(C)C)N1CCC(Cc2ccccc2)CC1.Cl (stereo not shown),-28.5
19,CN(/C(=N\S(=O)(=O)c1ccccc1)c1ccccc1)c1ccc(O)cc1,4.72
20,CCOC(=O)C1CCN(C(=O)C(C)Sc2ccc(Cl)cc2)CC1 (stereo not shown),12.3

row,SMILES,"hERG current change (%, negative = inhibition) at 1uM [%]"
1,CCCc1nn2c(=O)cc(COc3ccc(NC(=O)c4ccco4)cc3)nc2s1,-8.38
2,Cn1nnc2cc(C(=O)NC3CC3)ccc21,0.525
3,CCCNC(=O)c1[nH]c(C)c(C(C)=O)c1C,22
4,CCC(CC)C(=O)N1CC(=O)Nc2ccc(Br)cc2C1c1ccccc1 (stereo not shown),-4.08
5,Cc1cc([N+](=O)[O-])nn1CCCC(=O)Nc1sc2c(c1C(N)=O)CCCC2,-6.57
6,CCOc1ccc(CCNC(=O)CCn2ccc3cc(S(=O)(=O)N4CCCC4)ccc32)cc1,7.28
7,COc1ccc(C(=O)Nc2ccc(Cc3ccncc3)cc2)cc1Br,9.56
8,O=C(Nc1cccnc1)OC1CCCC1,22
9,CCCOC(=S)Nc1ccccc1,9.91
10,COc1ccc2[nH]c(=O)c(CN(C(=O)c3cccnc3)c3ccccc3C)cc2c1,11.6
11,O=C(/C=C/c1ccc(Cl)cc1Cl)NCCSc1ccccc1,16.7
12,CCOc1ccc(N=C2NC(=O)C(CC(=O)Nc3ccc(OC)cc3)S2)cc1 (stereo not shown),11.7
13,COc1ccc(C(=O)/C=C/Nc2cc(C)on2)cc1,14.1
14,Cc1ccc2cc(CCNC(=O)c3ccc(S(=O)(=O)N4CCOCC4)cc3)c(=O)[nH]c2c1C,11.8
15,Cc1cccc(C)c1NC(=S)NCc1ccncc1,16
16,Cc1ccc(N(Cc2ccccc2)C(=O)c2cccc(S(=O)(=O)N3CC(C)OC(C)C3)c2)cc1 (stereo not shown),15.1
17,O=C(Nc1ccccc1Cl)c1ccc2nsnc2c1,5.79
18,CC(C)/C=C(/C(=O)c1ccc(Cl)cc1Cl)n1cncn1,26.7
19,Cc1cc(-c2ccccc2)n2ncc(C#N)c2n1,-3.02
20,COc1ccc(CCNC(=O)CCCc2ccccc2)cc1OC,12.2

row,SMILES,"hERG current change (%, negative = inhibition) at 1uM [%]"
1,Fc1ccc(NC(=S)NC2CCCCC2)c(F)c1F,9.08
2,O=C(c1ccccc1Cc1ccccc1)N1CCN(S(=O)(=O)c2ccccc2F)CC1,-1.53
3,COCCNC(=O)C(=O)N/N=C(\C)CC(=O)Nc1cccc(C(F)(F)F)c1,15.6
4,Cn1cc(CN2CCC(C(O)CCc3ccccc3)CC2)c(-c2ccccc2F)n1 (stereo not shown),-19.4
5,CCOC(=O)c1c(NC(=O)CN2CCC(C)CC2)sc(C)c1C,5.26
6,CN(Cc1ccccc1)c1nc2c(c(=O)[nH]c(=O)n2C)n1CCCc1ccccc1,1.82
7,O=C(NCCCn1ccnc1)c1ccc(Cl)cc1,11.4
8,CCN1CCc2c(sc(N)c2C#N)C1,9.27
9,COc1ccccc1NS(=O)(=O)c1cc(NC(=O)c2cnccn2)ccc1N1CCOCC1,9.86
10,Cc1sc2nc(COC(=O)c3ccc(N4CCCC(C)C4)c([N+](=O)[O-])c3)[nH]c(=O)c2c1C (stereo not shown),11.8
11,CCCCC(=O)NC(NC(=S)N1CCOCC1)C(Cl)(Cl)Cl (stereo not shown),-8.85
12,Cl.N=c1n(CCN2CCCCC2)c2ccccc2n1CC(O)COc1ccccc1 (stereo not shown),-32.7
13,CCCN(C(=O)C1=COCCO1)c1c(N)n(Cc2ccccc2)c(=O)[nH]c1=O,17
14,CCCc1noc(-c2cccc([N+](=O)[O-])c2)n1,2.18
15,CC1CCCCC1NC(=O)c1cc2c(s1)CS(=O)(=O)C2 (stereo not shown),6.99
16,COc1ccc(-c2oc(=O)c3cc(OC)c(OC)cc3c2/C=C/c2cccc([N+](=O)[O-])c2)cc1,4.92
17,CC(=O)Nc1c(O)nc(SCC(=O)Nc2ccc(C(C)=O)cc2)[nH]c1=O,6.18
18,COCCNC(=O)Cn1cnc2ccc(S(=O)(=O)N3CCC(C)CC3)cc2c1=O,0.305
